# Reference: PubChem BioAssay AID686979 (National Center for Advancing Translational Sciences (NCATS), 2013)
# Where “and” joins values, the source holds several entries; their conditions need not be identical. Equal values may be shown once. The campaign covered roughly 420,000 compounds. About 50,000 (12%) were called active. Inconclusive results, whose numbers are uncertain, are shown with a selection of clear calls. Calls come from the whole dose curve; as a rule, active = well fitted inhibition curve with a large enough effect; inconclusive = small, poorly fitted or top-dose-only effect; inactive = flat fitted curve, though single readings scatter. Where the call is inconclusive, the potency comes from a doubtful curve fit.
# Assay: qHTS for Inhibitors of human tyrosyl-DNA phosphodiesterase 1 (TDP1): qHTS in cells in presence of CPT; note: nearly all actives have a fitted effect of over 55% in size
# Conditions: chicken DT40 Tdp1-/-;hTDP1 cells + 20 nM CPT, ATP luminescence, 48 h; activity change, negative = growth inhibition: at 46.2 µM (top of the series)
# Outline: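 Chicken DT40 Tdp1-/- cells stably complemented with human TDP1 were seeded at 400 cells/well in medium containing 20 nM camptothecin, exposed to pin-transferred compounds, and grown at 37 °C for at least 48 hr. Viability was read as ATP luminescence.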
# % is set by controls: 0 for no effect and ±100 for the full control effect; potency is the fitted concentration of half-maximal effect; tags give direction and shape of the fitted curve.
Compound,Potency,"activity change, negative = growth inhibition"
Cc1cc(-c2ccccc2)nc(SCc2ccc(C(=O)O)o2)n1,"inconclusive: 16.4 µM [inhibitor, partial curve]",
COc1ccc(OCC(=O)NNC(=O)c2ccc(-c3ccccc3)cc2)cc1,"inconclusive: 23.1 µM [inhibitor, single point]",
CC1CCCCC1NC(=O)COC(=O)c1ccc([N+](=O)[O-])o1 (centres undefined),,inactive: 9.99%
COc1ccc(OC)c(N(CC(=O)NCCSC2CCCCC2)S(=O)(=O)c2ccccc2)c1,"inconclusive: 25.9 µM [inhibitor, single point]",
Fc1ccc2c(c1)C(c1ccncc1)=NNC(c1ccccc1)=N2,,inactive: -19.5%
COc1ccccc1NNC(=O)C(O)(c1ccccc1OC)c1ccccc1OC,active: 18.4 µM,
Cc1cccc(N2CCN(C(=O)Cc3ccc(-n4c(=O)[nH]c5ccsc5c4=O)cc3)CC2)c1C,,inactive: -19.3%
Cc1nn(-c2ccccc2)c2sc(-c3n[nH]c(=S)o3)cc12,"inconclusive: 13 µM [inhibitor, single point]",
Cc1ccccc1OCC(=O)Nc1ccc2nc(SCc3ccccc3)sc2c1,,inactive: -13.1%
Cc1ccccc1C(=O)N1CCN(c2ccc(NC(=O)c3ccc4c(c3)OCCO4)cc2)CC1,"inconclusive: 16.4 µM [inhibitor, single point]",
O=C(O)c1ccc(NC(=S)N2CCCCC2)cc1,,inactive: 17.5%
COc1nc(Nc2cccc(C)c2)nc(N2CCCCC2)n1,active: 18.4 µM,
O=C(C[C@H]1C/C=C\C[C@@H](Cc2ccc(F)cc2)C(=O)O[C@H](c2ccccc2)CNC1=O)NCCO,"inconclusive: 29.1 µM [inhibitor, single point]",
O=C(Cc1csc(Nc2nc(=S)[nH]c3ccccc23)n1)N1CCN(c2cccc(C(F)(F)F)c2)CC1,"inconclusive: 16.4 µM [inhibitor, partial curve]",
COc1ccc(-c2ccc(NS(=O)(=O)c3cccc(C)c3)cc2)nn1,"inconclusive: 29.1 µM [inhibitor, single point]",
COC(=O)c1cn(C(=O)c2ccc(OC)c(OC)c2)c2ccccc12,"inconclusive: 29.1 µM [inhibitor, single point]",
CN(C)c1ncnc2c1ncn2-c1ccccc1,"inconclusive: 29.1 µM [inhibitor, single point]",
O=C(O)c1ccc(NS(=O)(=O)c2ccc3c(c2)C(=O)c2ccccc2C3=O)cc1,,inactive: -0.729%
COC(=O)C(Cc1ccccc1)NC(=O)CC(C)CC(=O)Nc1ccc(OC)cc1OC (centres undefined),,inactive: -18.4%
COc1cc(/C=N\NC(=O)c2ccc(-c3ccccc3)cc2)cc(Br)c1O,"inconclusive: 29.1 µM [inhibitor, single point]",
Cc1c(C(=O)NCc2ccccc2C(F)(F)F)sc(=O)n1Cc1ccc(Cl)c(Cl)c1,"inconclusive: 29.1 µM [inhibitor, single point]",
CCCc1ccc2oc(C(=O)NCCc3cnn(C)c3)c(C)c2c1,active: 16.4 µM,
COc1ccc(OCC(=O)NC2CC(=O)N(c3ccc4c(c3)OCCO4)C2)cc1 (centres undefined),,inactive: 1.31%

Compound,Potency,"activity change, negative = growth inhibition"
CC(=O)OCC(=O)[C@@]1(O)CC[C@H]2[C@@H]3CCC4=CC(=O)C=C[C@]4(C)[C@@]3(F)[C@@H](O)C[C@@]21C,inactive,
O=C(c1cccc(NS(=O)(=O)c2ccc(F)c(F)c2)c1)N1CCN(C(c2ccccc2)c2ccccc2)CC1,,inactive: -29.2%
CC(=O)Nc1ccc(-c2ccnc3c2CC(C)(C(=O)NCc2ccncc2)O3)cc1 (centres undefined),,inactive: 5.6%
O=C(C1CCCCC1)N1CCCC(c2nc3c(nnn3Cc3ccccc3)c(=O)[nH]2)C1 (centres undefined),,inactive: -25.1%
Cc1ccc(C)c(CN2C(=O)C3(c4ccccc42)N(c2ccc(Cl)cc2)C(=O)CS3(=O)=O)c1 (centres undefined),"inconclusive: 11.6 µM [inhibitor, partial curve, poor fit]",
CCN(CC)c1ccc(/C=C2\C(=O)c3ccc(C(=O)O)cc3C2=O)cc1,,inactive: 3.46%
O=C(Nc1cccc(Cl)c1)c1ccc2sc([C@@H]3O[C@H](CO)[C@H](O)[C@H](O)[C@H]3O)nc2c1,,inactive: -0.034%
COc1ccc(C(NC(=O)C2CCN(Cc3ccc(Oc4ccccc4)cc3)CC2)c2ccccn2)cc1 (centres undefined),active: 16.4 µM,
Nc1cc([N+](=O)[O-])cc(N)c1N,"inconclusive: 17.8 µM [inhibitor, single point]",
CC1CC(C)CN(S(=O)(=O)c2ccc(C(=O)NCc3ccc4c(c3)OCO4)cc2)C1 (centres undefined),active: 16.4 µM,
COc1ccc(CCNC(=O)CSCc2c(F)cccc2Cl)cc1OC,"inconclusive: 29.1 µM [inhibitor, single point]",
CC(C)(C)[C@H]1CCC(=O)N(CCSc2ccc(Br)cc2)CC1,"inconclusive: 35.5 µM [inhibitor, single point]",
CCc1ccc(NS(=O)(=O)c2c(C)nc3sc(CC)nn3c2=O)cc1,"inconclusive: 25.9 µM [inhibitor, single point] and inconclusive: 11.6 µM [inhibitor, partial curve]",
CCCCn1c(N)c(N(CCOC)C(=O)c2nn(CC)c(=O)c3ccccc23)c(=O)[nH]c1=O,,inactive: -29.7%
CCOc1ccc(/C=C2\SC(=S)N(CC(=O)N(CCO)C(C)(C)C)C2=O)cc1,"inconclusive: 25.9 µM [inhibitor, single point]",
O=C(CN(Cc1ccc(Br)cc1)S(=O)(=O)c1ccccc1)NCC1CCCO1 (centres undefined),"inconclusive: 29.1 µM [inhibitor, single point]",
CC[n+]1ccc(/C=C/c2c[nH]c3ccccc23)cc1,active: 2.31 µM,
COc1cc(NC(=O)COc2ccc(C)c(C)c2)ccc1NC(=O)c1ccco1,,inactive: 17%
O=C(/C=C/c1ccccc1Br)c1ccc2c(c1)OCO2,active: 20.6 µM,
CC1CCN(c2nc3c(S(=O)(=O)c4ccc(Cl)cc4)nnn3c3ccsc23)CC1,"inconclusive: 18.4 µM [inhibitor, single point]",
Cn1c(CSc2nnc(SCc3ccccc3)s2)nc2ccccc21,,inactive: -21.8%
Cc1ccc(C(=O)Nc2ccc(C(=O)N/N=C/c3c[nH]c4ccccc34)cc2)cc1,"inconclusive: 29.1 µM [inhibitor, single point]",
CCCCOc1ccc(C(=O)NCC(=O)NCCCn2nc(C)cc2C)cc1,,inactive: -5.97%

Compound,Potency,"activity change, negative = growth inhibition"
CC(=O)N1c2ccccc2CC1C(=O)NCc1cccc(Cl)c1 (centres undefined),"inconclusive: 29.1 µM [inhibitor, single point]",
Cn1ccnc1SCC(=O)NC1CCCCC1,,inactive: 1.05%
Cc1c(C(=O)Nc2ccc3c4c(cccc24)CC3)cccc1[N+](=O)[O-],"inconclusive: 18.4 µM [inhibitor, single point]",
Cc1cccc(CN2Cc3cccc4c3[C@H](C=CC4)CC2=O)c1,active: 15.8 µM,
CCOC(=O)c1c(-c2ccccc2)csc1NC(=O)c1nn(CC)cc1Br,"inconclusive: 25.9 µM [inhibitor, single point]",
COc1ccc(-c2cc(C)no2)cc1S(=O)(=O)N1CCN(c2ccccc2F)CC1,"inconclusive: 18.4 µM [inhibitor, single point] and inconclusive: 16.4 µM [inhibitor, single point]",
O=C(NCc1ccccc1)C1CCCN(S(=O)(=O)c2ccc(Br)cc2)C1 (centres undefined),"inconclusive: 23.1 µM [inhibitor, partial curve]",
CCOc1cccc(C2CC(=O)Nc3cc4c(cc32)OCCO4)c1 (centres undefined),active: 5.17 µM,
COc1cccc(CNC(=O)CCC2CCCN(C(=O)Cc3ccccc3F)C2)c1 (centres undefined),"inconclusive: 32.6 µM [inhibitor, partial curve, poor fit]",
CCOC(=O)c1ccccc1NC(=O)CN(c1ccccc1)S(=O)(=O)N(C)C,"inconclusive: 23.1 µM [inhibitor, partial curve, poor fit]",
CC(=O)Nc1ccc(/C=C(\C#N)S(=O)(=O)c2ccc(C)cc2)cc1,"inconclusive: 32.6 µM [inhibitor, partial curve]",
CC(O)CNCc1ccc(-c2ccccc2)cc1 (centres undefined),,inactive: -13.8%
Cc1onc(-c2c(Cl)cccc2Cl)c1C(=O)NCc1ccco1,"inconclusive: 12.6 µM [inhibitor, partial curve]",
CC(OCCN1CCCC1)(c1ccc(F)cc1)c1ccc(F)cc1,"inconclusive: 29.1 µM [inhibitor, single point]",
C=CC[C@H]1C(C(=O)OCC)=CC[C@@H](c2ccccc2)N1S(=O)(=O)c1ccc(C)cc1,"inconclusive: 25.9 µM [inhibitor, single point]",
C=C1C(=O)O[C@H]2[C@H]1CC/C(C)=C\CC[C@@]1(C)O[C@@H]21,active: 2.37 µM,
COc1cccc(NC(=O)C2(C)CCN2Cc2ccc(-c3ccccc3)o2)c1 (centres undefined),"inconclusive: 29.1 µM [inhibitor, single point]",
CCCCOc1ccccc1C1C(C(=O)OC)=C(C)N(C)C(C)=C1C(=O)OC,"inconclusive: 29.1 µM [inhibitor, single point]",
CC1CCN(CCCCOc2ccc(C(C)(C)C)cc2)CC1,active: 23.1 µM,
CC1CCN(c2ccccc2NC(=S)NC(=O)C(C)(C)C)CC1,"inconclusive: 29.1 µM [inhibitor, single point]",
Cc1ccccc1NC(=O)CSc1cn(CC(=O)N(C(C)C)C(C)C)c2ccccc12,"inconclusive: 29.1 µM [inhibitor, single point]",
CCc1ccccc1NC(=O)c1ccc(CN2C(=O)CCn3nc(C)cc32)cc1,,inactive: -13.8%
COCCNC(=O)C1CCN(c2nc3ccccc3nc2C(F)(F)F)CC1,"inconclusive: 16.4 µM [inhibitor, partial curve, poor fit]",
